Measurements published in publication PMC8912257 (Cell Host & Microbe, 2022).
Changes are numbered by the printed parent chain. Where two headings read alike, the source gives them in different places. These are yes or no findings as the source states them, for the method shown. For some assays here: In cells and extracts the contact can be indirect. Some results given as binding are weak or reduced against the parent protein; the word gives no strength. For some assays here: Sequences can lack the tags named with a protein.

Protein sequences, listed by entry. Tags and fused reporters are not part of them. Lines headed by an entry give the natural chain unless they say otherwise; changes in a name come on top.
UniProt P42224: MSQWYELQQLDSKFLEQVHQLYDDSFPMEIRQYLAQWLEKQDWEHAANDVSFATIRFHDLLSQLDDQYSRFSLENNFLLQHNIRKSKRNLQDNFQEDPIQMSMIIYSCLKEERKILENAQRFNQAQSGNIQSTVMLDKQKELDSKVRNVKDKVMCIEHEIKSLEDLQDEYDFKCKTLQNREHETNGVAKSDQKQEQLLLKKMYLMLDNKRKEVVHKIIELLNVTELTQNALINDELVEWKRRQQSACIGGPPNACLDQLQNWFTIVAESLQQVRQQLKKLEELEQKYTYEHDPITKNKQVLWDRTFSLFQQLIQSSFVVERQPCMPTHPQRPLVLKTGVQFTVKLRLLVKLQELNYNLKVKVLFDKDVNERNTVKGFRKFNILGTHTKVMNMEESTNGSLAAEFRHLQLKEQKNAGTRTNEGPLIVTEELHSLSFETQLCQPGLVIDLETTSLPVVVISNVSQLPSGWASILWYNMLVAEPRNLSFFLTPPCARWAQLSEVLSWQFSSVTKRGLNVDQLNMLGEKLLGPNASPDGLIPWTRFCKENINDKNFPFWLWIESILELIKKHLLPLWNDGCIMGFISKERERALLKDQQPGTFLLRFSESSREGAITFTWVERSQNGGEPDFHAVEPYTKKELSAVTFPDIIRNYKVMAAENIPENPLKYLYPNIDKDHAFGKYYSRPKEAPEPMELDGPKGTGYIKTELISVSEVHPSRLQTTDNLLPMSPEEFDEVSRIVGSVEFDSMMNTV
UniProt P40763: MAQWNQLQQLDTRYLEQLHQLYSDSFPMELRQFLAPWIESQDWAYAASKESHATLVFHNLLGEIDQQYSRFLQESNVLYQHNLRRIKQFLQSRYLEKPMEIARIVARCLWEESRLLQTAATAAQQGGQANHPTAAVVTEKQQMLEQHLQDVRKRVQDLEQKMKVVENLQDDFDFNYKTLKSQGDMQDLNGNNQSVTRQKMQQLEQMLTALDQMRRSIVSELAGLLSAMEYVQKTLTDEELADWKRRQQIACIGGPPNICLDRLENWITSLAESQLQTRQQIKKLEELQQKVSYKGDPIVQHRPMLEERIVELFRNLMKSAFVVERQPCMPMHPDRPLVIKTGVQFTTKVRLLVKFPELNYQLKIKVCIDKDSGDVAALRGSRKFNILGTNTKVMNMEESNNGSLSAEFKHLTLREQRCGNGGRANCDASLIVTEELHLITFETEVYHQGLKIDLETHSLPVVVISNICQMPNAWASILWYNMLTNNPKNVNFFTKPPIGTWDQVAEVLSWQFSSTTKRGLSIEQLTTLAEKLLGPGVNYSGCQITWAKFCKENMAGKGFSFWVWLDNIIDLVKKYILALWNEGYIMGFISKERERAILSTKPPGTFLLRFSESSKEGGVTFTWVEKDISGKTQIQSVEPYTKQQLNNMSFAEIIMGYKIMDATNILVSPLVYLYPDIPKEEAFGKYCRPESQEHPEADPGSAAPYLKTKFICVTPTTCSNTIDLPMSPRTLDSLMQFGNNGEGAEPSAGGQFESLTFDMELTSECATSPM
UniProt P52630: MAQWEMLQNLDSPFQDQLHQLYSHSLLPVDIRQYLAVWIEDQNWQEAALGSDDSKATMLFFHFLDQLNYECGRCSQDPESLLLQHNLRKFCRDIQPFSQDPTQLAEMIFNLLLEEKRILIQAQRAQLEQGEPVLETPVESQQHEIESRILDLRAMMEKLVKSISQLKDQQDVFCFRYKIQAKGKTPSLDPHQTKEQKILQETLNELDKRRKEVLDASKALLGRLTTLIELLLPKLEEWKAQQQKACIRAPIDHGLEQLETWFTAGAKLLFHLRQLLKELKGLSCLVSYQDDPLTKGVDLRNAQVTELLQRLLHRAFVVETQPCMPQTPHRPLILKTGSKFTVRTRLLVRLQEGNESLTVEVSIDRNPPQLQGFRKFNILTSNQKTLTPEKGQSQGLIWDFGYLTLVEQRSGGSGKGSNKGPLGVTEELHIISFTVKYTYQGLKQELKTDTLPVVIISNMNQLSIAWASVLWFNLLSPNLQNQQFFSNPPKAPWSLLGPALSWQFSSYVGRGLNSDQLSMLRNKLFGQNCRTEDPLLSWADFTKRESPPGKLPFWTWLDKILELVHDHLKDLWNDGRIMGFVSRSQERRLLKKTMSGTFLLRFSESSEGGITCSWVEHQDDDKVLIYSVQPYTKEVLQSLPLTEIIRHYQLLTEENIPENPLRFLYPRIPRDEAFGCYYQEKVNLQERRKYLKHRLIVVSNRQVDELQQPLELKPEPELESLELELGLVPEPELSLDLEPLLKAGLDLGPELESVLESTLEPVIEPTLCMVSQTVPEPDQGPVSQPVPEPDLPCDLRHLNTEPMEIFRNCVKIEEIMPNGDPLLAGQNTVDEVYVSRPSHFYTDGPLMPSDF
UniProt P42229: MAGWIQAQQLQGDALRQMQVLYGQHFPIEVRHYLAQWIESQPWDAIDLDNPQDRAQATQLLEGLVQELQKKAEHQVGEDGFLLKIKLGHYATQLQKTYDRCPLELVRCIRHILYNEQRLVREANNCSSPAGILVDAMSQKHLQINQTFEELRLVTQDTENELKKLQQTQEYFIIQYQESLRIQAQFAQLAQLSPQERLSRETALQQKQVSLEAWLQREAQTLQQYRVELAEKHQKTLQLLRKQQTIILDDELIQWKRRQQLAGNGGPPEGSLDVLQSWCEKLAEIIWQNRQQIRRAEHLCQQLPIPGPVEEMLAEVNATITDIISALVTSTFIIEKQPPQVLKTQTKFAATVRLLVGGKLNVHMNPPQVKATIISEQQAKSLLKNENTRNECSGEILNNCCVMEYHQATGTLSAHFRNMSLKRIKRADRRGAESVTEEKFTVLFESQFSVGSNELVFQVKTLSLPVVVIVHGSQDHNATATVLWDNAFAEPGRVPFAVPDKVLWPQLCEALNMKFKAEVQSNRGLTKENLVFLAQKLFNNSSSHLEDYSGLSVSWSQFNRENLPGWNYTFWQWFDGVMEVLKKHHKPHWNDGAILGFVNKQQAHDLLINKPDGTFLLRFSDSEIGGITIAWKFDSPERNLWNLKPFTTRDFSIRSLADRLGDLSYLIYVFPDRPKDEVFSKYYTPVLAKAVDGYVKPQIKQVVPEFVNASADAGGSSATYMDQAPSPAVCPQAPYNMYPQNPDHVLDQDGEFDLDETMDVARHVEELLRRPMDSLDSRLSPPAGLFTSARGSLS
UniProt P51692: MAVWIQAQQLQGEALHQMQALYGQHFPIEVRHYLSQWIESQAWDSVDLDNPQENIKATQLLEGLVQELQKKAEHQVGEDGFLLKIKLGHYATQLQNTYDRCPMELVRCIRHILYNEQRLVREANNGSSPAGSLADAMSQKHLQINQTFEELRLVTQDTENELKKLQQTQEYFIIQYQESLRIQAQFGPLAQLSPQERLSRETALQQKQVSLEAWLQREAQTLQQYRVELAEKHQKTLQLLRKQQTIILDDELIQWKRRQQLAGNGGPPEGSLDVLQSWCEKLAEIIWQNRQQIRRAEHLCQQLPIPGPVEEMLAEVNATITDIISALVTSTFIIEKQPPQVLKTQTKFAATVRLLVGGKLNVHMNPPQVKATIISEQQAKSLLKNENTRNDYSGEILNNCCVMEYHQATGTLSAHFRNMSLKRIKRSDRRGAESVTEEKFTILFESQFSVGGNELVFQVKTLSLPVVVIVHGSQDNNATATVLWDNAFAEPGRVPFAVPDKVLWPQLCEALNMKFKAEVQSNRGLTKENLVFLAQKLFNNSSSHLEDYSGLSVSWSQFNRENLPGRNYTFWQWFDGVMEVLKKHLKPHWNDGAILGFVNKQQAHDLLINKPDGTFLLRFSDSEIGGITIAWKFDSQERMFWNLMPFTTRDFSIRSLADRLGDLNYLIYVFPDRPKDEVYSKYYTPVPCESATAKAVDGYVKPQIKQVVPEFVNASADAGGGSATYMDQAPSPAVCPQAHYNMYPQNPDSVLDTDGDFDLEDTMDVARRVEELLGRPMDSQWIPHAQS

T1: TAP-tagged VACV protein 018 (vaccinia virus strain Western Reserve) (UniProt P17356)
T1 sequence: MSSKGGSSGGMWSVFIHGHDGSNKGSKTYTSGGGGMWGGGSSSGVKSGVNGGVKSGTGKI

T2: TAP-018 produced in a cell-free system (vaccinia virus strain Western Reserve) (UniProt P17356)
T2 sequence: T1 sequence

T3: TAP-tagged 018^AGA (vaccinia virus strain Western Reserve) (UniProt P17356)
T3 sequence: T1 sequence with H17A, H19A

B1: GB1-018^AGA (018 with 17-HGH-19 mutated to 17-AGA-19, fused to GB1) (protein)
chain: T1 sequence with H17A, H19A
B2: V5-STAT4 (protein, UniProt Q14765 1-748)
chain: MSQWNQVQQLEIKFLEQVDQFYDDNFPMEIRHLLAQWIENQDWEAASNNETMATILLQNLLIQLDEQLGRVSKEKNLLLIHNLKRIRKVLQGKFHGNPMHVAVVISNCLREERRILAAANMPVQGPLEKSLQSSSVSERQRNVEHKVAAIKNSVQMTEQDTKYLEDLQDEFDYRYKTIQTMDQSDKNSAMVNQEVLTLQEMLNSLDFKRKEALSKMTQIIHETDLLMNTMLIEELQDWKRRQQIACIGGPLHNGLDQLQNCFTLLAESLFQLRRQLEKLEEQSTKMTYEGDPIPMQRTHMLERVTFLIYNLFKNSFVVERQPCMPTHPQRPLVLKTLIQFTVKLRLLIKLPELNYQVKVKASIDKNVSTLSNRRFVLCGTNVKAMSIEESSNGSLSVEFRHLQPKEMKSSAGGKGNEGCHMVTEELHSITFETQICLYGLTIDLETSSLPVVMISNVSQLPNAWASIIWYNVSTNDSQNLVFFNNPPPATLSQLLEVMSWQFSSYVGRGLNSDQLHMLAEKLTVQSSYSDGHLTWAKFCKEHLPGKSFTFWTWLEAILDLIKKHILPLWIDGYVMGFVSKEKERLLLKDKMPGTFLLRFSESHLGGITFTWVDHSESGEVRFHSVEPYNKGRLSALPFADILRDYKVIMAENIPENPLKYLYPDIPKDKAFGKHYSSQPCEVSRPTERGDKGYVPSVFIPISTIRSDSTEPHSPSDLLPMSPSVYAVLRENLSPTTIETAMKSPYSAE
B3: GB1-018 (natural protein)
chain: T1 sequence
B4: IRF9 (endogenous) (protein, UniProt Q00978 1-393)
chain: MASGRARCTRKLRNWVVEQVESGQFPGVCWDDTAKTMFRIPWKHAGKQDFREDQDAAFFKAWAIFKGKYKEGDTGGPAVWKTRLRCALNKSSEFKEVPERGRMDVAEPYKVYQLLPPGIVSGQPGTQKVPSKRQHSSVSSERKEEEDAMQNCTLSPSVLQDSLNNEEEGASGGAVHSDIGSSSSSSSPEPQEVTDTTEAPFQGDQRSLEFLLPPEPDYSLLLTFIYNGRVVGEAQVQSLDCRLVAEPSGSESSMEQVLFPKPGPLEPTQRLLSQLERGILVASNPRGLFVQRLCPIPISWNAPQAPPGPGPHLLPSNECVELFRTAYFCRDLVRYFQGLGPPPKFQVTLNFWEESHGSSHTPQNLITVKMEQAFARYLLEQTPEQQAAILSLV
B5: GB1-018^AGA (protein, UniProt P17356 1-60)
chain: T1 sequence with H17A, H19A

Experiments:
[1] = target: T1, TAP-tagged VACV protein 018 (vaccinia virus strain Western Reserve); assay: pull-down
[2] = target: T2, TAP-018 produced in a cell-free system (vaccinia virus strain Western Reserve); assay: pull-down
[3] = target: T3, TAP-tagged 018^AGA (vaccinia virus strain Western Reserve); assay: pull-down
[4] = target: Full-length STAT1 protein (unphosphorylated, U-STAT1) (UniProt P42224); assay: ITC; both purified
[5] = target: T1, TAP-tagged VACV protein 018 (vaccinia virus strain Western Reserve); assay: pull-down; remark: listed apart in the source
[6] = target: STAT1 (endogenous, human cell lines) (human (endogenous in 2fTGH, U6A, HEK 293T)) (UniProt P42224); assay: pull-down
[7] = target: Full-length STAT1 protein (unphosphorylated) (human) (UniProt P42224); assay: ITC; both purified

Molecule	binding [1]	also measured
V5-STAT3 (human) (from UniProt P40763 1-770)	no binding	–
V5-STAT2 (from UniProt P52630 1-851)	no binding	–
V5-STAT3 (control of the chimera experiment, Figure 5D) (from UniProt P40763 1-770)	no binding	–
V5-STAT1 (from UniProt P42224 1-750)	binds	–
STAT1 produced in a cell-free system (from UniProt P42224 1-750)	–	binding [2]: binds
V5-STAT1 (1-684) (from UniProt P42224 1-684) (domain or fragment)	binds	–
STAT1 (endogenous, human cell lines) (from UniProt P42224 1-750)	binds	binding [3]: no binding
V5-STAT1 (1-712) (from UniProt P42224 1-712)	binds	–
V5-STAT5A (from UniProt P42229 1-794)	no binding	–
V5-STAT5B (from UniProt P51692 1-787)	no binding	–
V5-STAT3^Q635H (human) (from UniProt P40763 1-770)	binds	–
B1	–	binding [4]: no binding (tested: 100 μM 018AGA titrated into 10 μM STAT1)
B2	–	binding [5]: binds
B3	–	binding [6]: binds
B4	–	binding [5]: no binding
B5	–	binding [7]: no binding (tested: 100 μM GB1-018^AGA into 10 μM U-STAT1)
